PubChem BioAssay AID1030 (National Center for Advancing Translational Sciences (NCATS), 2008)
The campaign covered roughly 220,000 compounds. About 16,000 (7.3%) were called active. This list was built around the results that the source calls inconclusive (neither active nor inactive); the mix of calls is not that of the screen. Calls come from the whole dose curve; as a rule, active = well fitted inhibition curve with a large enough effect (not every such curve was filed as active); inconclusive = small, poorly fitted or top-dose-only effect, or another doubt; inactive = no such curve, though single readings can be large or run the other way. No potency is given beside an inconclusive call; the fits are too rough.

target: Aldehyde dehydrogenase 1A1 (Homo sapiens) (UniProt P00352); experiment: qHTS Assay for Inhibitors of Aldehyde Dehydrogenase 1 (ALDH1A1); settings: Purified ALDH1A1, NADH fluorescence, propionaldehyde substrate; series mostly up to 75.3 µM; activity, negative = inhibition: at the top concentration;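 for activity, negative = inhibition: plate controls were no enzyme wells and a reference inhibitor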
Potency is the fitted concentration of half-maximal effect; tags give direction and shape of the fitted curve.

UniProt P00352, sequence (P00352 whole entry, looked up): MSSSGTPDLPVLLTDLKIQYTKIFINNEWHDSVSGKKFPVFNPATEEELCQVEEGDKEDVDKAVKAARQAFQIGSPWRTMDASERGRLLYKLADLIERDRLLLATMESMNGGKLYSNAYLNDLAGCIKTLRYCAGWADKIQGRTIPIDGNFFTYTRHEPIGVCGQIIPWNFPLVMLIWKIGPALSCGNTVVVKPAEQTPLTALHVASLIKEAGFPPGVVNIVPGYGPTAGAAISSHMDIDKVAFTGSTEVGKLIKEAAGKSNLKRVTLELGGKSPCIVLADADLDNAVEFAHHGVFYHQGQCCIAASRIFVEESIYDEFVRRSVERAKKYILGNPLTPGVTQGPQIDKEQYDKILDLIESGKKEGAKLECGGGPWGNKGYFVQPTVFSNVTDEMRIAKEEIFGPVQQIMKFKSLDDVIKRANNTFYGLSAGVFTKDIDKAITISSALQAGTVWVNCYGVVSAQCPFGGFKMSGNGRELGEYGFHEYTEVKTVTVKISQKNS

| SMILES | Potency | activity, negative = inhibition |
| --- | --- | --- |
| O=C(Nc1nc2ccccc2n1CCN1CCOCC1)c1cn(-c2ccccc2)nc1-c1ccccc1 | inconclusive [inhibitor, partial curve] |  |
| O=C(CCN1C(=O)c2ccccc2C1=O)Nc1cccc(S(=O)(=O)NC2=NCCC2)c1 |  | inactive: 3.18% |
| Cc1cc(C)n(CC(O)Cn2c3ccc(Br)cc3c3cc(Br)ccc32)c(=O)n1 (configuration not stated) |  | inactive: -11.9% |
| Cc1nc(SCC(=O)NCc2ccco2)nc(C)c1C | active: 25.1 µM |  |
| COc1ccc(-c2nc(C#N)c(NCc3ccccc3Cl)o2)cc1OC | inconclusive [inhibitor, partial curve] |  |
| CCOC(=O)Nc1ccc(S(=O)(=O)NC2CCCCC2)cc1 |  | inactive: -2.52% |
| Cc1c(O)ccc(C(=O)COc2ccc(F)cc2)c1O | active: 17.8 µM |  |
| CCOC(=O)C(=O)N=Nc1c(O)n(C)c2ccccc12 | active: 14.1 µM |  |
| NC(=O)Cc1ncc(C(F)(F)F)cc1Cl |  | inactive: 5.33% |
| CCOC(=O)c1cccc(NC(=O)CSc2nnnn2C)c1 |  | inactive: 10.9% |
| O=C(Nc1ccc(N2CCOCC2)cc1)c1cc2c(s1)CCCCC2 | inconclusive [inhibitor, partial curve] |  |
| Cc1cc(-c2csc(NC(=O)c3ccc(=O)[nH]c3)n2)c(C)n1Cc1ccccc1 |  | inactive: -12.5% |
| COC(=O)c1sccc1NC(=O)c1cc2c(s1)CCCC2 | inconclusive [inhibitor, partial curve] |  |
| COc1ccc(/C=C/C(=O)Nc2sc3c(c2C(=O)NCc2cccnc2)CCCC3)cc1 | active: 3.98 µM |  |
| COc1ccc(/C=C/C(=O)NC(=S)NNC(=O)c2ccco2)cc1 | inconclusive [inhibitor, single point] |  |
| COc1ccc2c(c1)c1ncn(CCN3CCCC3)c(=O)c1n2C | inconclusive [inhibitor, partial curve] |  |
| COc1ccccc1-c1coc2c(CN3CCN(C)CC3)c(O)ccc2c1=O | inconclusive [inhibitor, partial curve] |  |
| COc1ccc(N=CC2=C(O)c3ccccc3C2=O)c(OC)c1 | inconclusive [inhibitor, full curve] |  |
| COc1ccc(CNC(=O)COC(=O)c2ccccc2C(=O)c2ccccc2)cc1 | inconclusive [inhibitor, single point] |  |
| N#Cc1c2n(c3c(=O)n(Cc4ccccc4Cl)cnc13)CCCCC2 | inconclusive [inhibitor, partial curve] |  |
| CN1CCN(c2ccc(S(=O)(=O)N3CCCCC3)cc2NC(=O)c2ccc(C#N)cc2)CC1 |  | inactive: -6.81% |
| CC(CN1CCNCC1)(NS(=O)(=O)c1ccccc1)c1ccccc1 (configuration not stated) | inconclusive [inhibitor, single point] |  |
| CCOC(=O)Cn1c(=NC(=O)c2nc3ccccc3s2)sc2cc(S(N)(=O)=O)ccc21 | inconclusive [inhibitor, partial curve] |  |
| Cc1ccc(NC(=O)C(C)c2cccc(C(=O)c3ccccc3)c2)cc1 (configuration not stated) | inconclusive [inhibitor, single point] |  |

| SMILES | Potency | activity, negative = inhibition |
| --- | --- | --- |
| Cc1cc(N2CCN(Cc3ccccc3)CC2)n2nc(C)c(-c3ccccc3)c2n1 | inconclusive [inhibitor, partial curve] |  |
| COc1ccc(NC(=O)C2CCCN2C(=O)OCc2ccccc2)c(OC)c1 (configuration not stated) | inconclusive [inhibitor, single point] |  |
| COc1ccc(N2C(=O)C3CCCN3C2c2ccc(Cl)cc2)cc1 (configuration not stated) | inconclusive [inhibitor, single point] |  |
| COc1ccc(C(=O)CN2C(=O)C(C)(C)Oc3ccc(C(=O)N4CCCCCC4)cc32)cc1 |  | inactive: -9.32% |
| O=C(O)C(=O)Cc1c[nH]c2ccccc12 | inconclusive [inhibitor, single point] |  |
| O=C(N/N=C/c1cc([N+](=O)[O-])ccc1N1CCCCCC1)c1ccccn1 | inconclusive [inhibitor, single point] |  |
| CCCCN1CC2([N+](=O)[O-])C=CC(=O)C([N+](=O)[O-])(C1)C2CC(=O)c1ccccc1 (configuration not stated) | inconclusive [inhibitor, single point] |  |
| COc1ccc(C(=O)NC(=S)NNC(=O)c2cnccn2)cc1OC | active: 28.2 µM |  |
| COc1ccc(OC)c(/C=N/NC(=O)c2[nH]nc3c2CCc2ccccc2-3)c1 | inconclusive [inhibitor, partial curve] |  |
| C[C@H](NC(=O)c1ccc(Cl)cc1)C(=O)NCCc1ccc(S(N)(=O)=O)cc1 |  | inactive: 1.51% |
| O=C(CSc1ncn[nH]1)N1N=C(c2ccc(Cl)cc2)CC1c1ccco1 (configuration not stated) |  | inactive: -12.9% |
| Cc1ccc(C(=O)Oc2cccnc2)cc1[N+](=O)[O-] |  | inactive: -9.04% |
| NNC(=O)CCc1nc2ccccc2[nH]1 |  | inactive: 6.66% |
| Cc1ccc(NC(=O)Cn2c(=O)oc3cc(S(=O)(=O)N4CCC(C)CC4)ccc32)cc1C | inconclusive [inhibitor, single point] |  |
| NC(=O)SCC(=O)Nc1ccc(Cl)cc1 | inconclusive [inhibitor, partial curve] |  |
| O=S(=O)(NCCCCCNS(=O)(=O)c1ccccc1)c1ccccc1 | active: 0.562 µM |  |
| CN(Cc1ccccc1)C(=O)c1nc2ccccn2c1CN1CCc2sccc2C1 | inconclusive [inhibitor, partial curve] |  |
| O=C(Nc1ncn[nH]1)c1ccc(Cl)c(S(=O)(=O)N2CCCCCC2)c1 | inconclusive [inhibitor, single point] |  |
| CCCn1c(=N)c(C#N)cc2c(=O)n3cccc(C)c3nc21 | inconclusive [inhibitor, partial curve] |  |
| CCOC(=O)c1oc2nc(C(C)C)c3c(c2c1N)CCC3 | inconclusive [inhibitor, partial curve] |  |
| CCOc1c(CNCc2ccc(C(=O)O)cc2)cccc1OC |  | inactive: 4.84% |
| COc1cccc(CNC(=O)C2CCN(S(=O)(=O)N3CCCCC3)CC2)c1 | active: 10 µM |  |
| Cc1cccc(N2CSC3=C(C#N)C(c4ccc(C)o4)CC(=O)N3C2)c1 (configuration not stated) | active: 8.91 µM |  |
